Results as given in PMC9911399, “Two distinct binding modes provide the RNA-binding protein RbFox with extraordinary sequence specificity”.
Changes are numbered by the printed parent chain; changes in the protein carry UniProt numbers. This is one part of the list.

T1: RBFOX1 RRM (Homo sapiens, UniProt Q9NWB1 109-208)
T1 sequence: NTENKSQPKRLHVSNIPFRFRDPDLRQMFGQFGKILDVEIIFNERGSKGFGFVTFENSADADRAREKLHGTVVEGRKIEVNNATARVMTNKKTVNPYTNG

B1: UGUUUGA (DNA:RNA)
RNA: GGGAGACCGGAAUUCAGAUUGUCCUGUUUGAUUAAAUCCCGUCGUAGCCACCA
DNA 1: CAATCTGAATTCCGGTCTCCC
DNA 2: TGGTGGCTACGACGGGATT
B2: GAGGCGG (DNA:RNA)
RNA: B1 RNA with U25G, G26A, U27G, U28G, U29C, A31G
DNA 1: CAATCTGAATTCCGGTCTCCC
DNA 2: TGGTGGCTACGACGGGATT
B3: UGGUGAC (DNA:RNA)
RNA: B1 RNA with U27G, U29G, G30A, A31C
DNA 1: CAATCTGAATTCCGGTCTCCC
DNA 2: TGGTGGCTACGACGGGATT
B4: CUAUGAC (DNA:RNA)
RNA: B1 RNA with U25C, G26U, U27A, U29G, G30A, A31C
DNA 1: CAATCTGAATTCCGGTCTCCC
DNA 2: TGGTGGCTACGACGGGATT
B5: UUCGGGA (DNA:RNA)
RNA: B1 RNA with G26U, U27C, U28G, U29G
DNA 1: CAATCTGAATTCCGGTCTCCC
DNA 2: TGGTGGCTACGACGGGATT
B6: AGAUCAG (DNA:RNA)
RNA: B1 RNA with U25A, U27A, U29C, G30A, A31G
DNA 1: CAATCTGAATTCCGGTCTCCC
DNA 2: TGGTGGCTACGACGGGATT
B7: CCGAGUA (DNA:RNA)
RNA: B1 RNA with U25C, G26C, U27G, U28A, U29G, G30U
DNA 1: CAATCTGAATTCCGGTCTCCC
DNA 2: TGGTGGCTACGACGGGATT
B8: UUUUGUA (DNA:RNA)
RNA: B1 RNA with G26U, U29G, G30U
DNA 1: CAATCTGAATTCCGGTCTCCC
DNA 2: TGGTGGCTACGACGGGATT
B9: GAUUAGG (DNA:RNA)
RNA: B1 RNA with U25G, G26A, U29A, A31G
DNA 1: CAATCTGAATTCCGGTCTCCC
DNA 2: TGGTGGCTACGACGGGATT
B10: UGCGCCA (DNA:RNA)
RNA: B1 RNA with U27C, U28G, U29C, G30C
DNA 1: CAATCTGAATTCCGGTCTCCC
DNA 2: TGGTGGCTACGACGGGATT
B11: CUCCCUA (DNA:RNA)
RNA: B1 RNA with U25C, G26U, U27C, U28C, U29C, G30U
DNA 1: CAATCTGAATTCCGGTCTCCC
DNA 2: TGGTGGCTACGACGGGATT
B12: UGUUUCG (DNA:RNA)
RNA: B1 RNA with G30C, A31G
DNA 1: CAATCTGAATTCCGGTCTCCC
DNA 2: TGGTGGCTACGACGGGATT
B13: CUGUUUG (DNA:RNA)
RNA: B1 RNA with U25C, G26U, U27G, G30U, A31G
DNA 1: CAATCTGAATTCCGGTCTCCC
DNA 2: TGGTGGCTACGACGGGATT
B14: CCCAUUU (DNA:RNA)
RNA: B1 RNA with U25C, G26C, U27C, U28A, G30U, A31U
DNA 1: CAATCTGAATTCCGGTCTCCC
DNA 2: TGGTGGCTACGACGGGATT
B15: AUUUUCA (DNA:RNA)
RNA: B1 RNA with U25A, G26U, G30C
DNA 1: CAATCTGAATTCCGGTCTCCC
DNA 2: TGGTGGCTACGACGGGATT
B16: ACCCUAC (DNA:RNA)
RNA: B1 RNA with U25A, G26C, U27C, U28C, G30A, A31C
DNA 1: CAATCTGAATTCCGGTCTCCC
DNA 2: TGGTGGCTACGACGGGATT
B17: CAGUAGU (DNA:RNA)
RNA: B1 RNA with U25C, G26A, U27G, U29A, A31U
DNA 1: CAATCTGAATTCCGGTCTCCC
DNA 2: TGGTGGCTACGACGGGATT
B18: AAUAGUA (DNA:RNA)
RNA: B1 RNA with U25A, G26A, U28A, U29G, G30U
DNA 1: CAATCTGAATTCCGGTCTCCC
DNA 2: TGGTGGCTACGACGGGATT
B19: GUCAAAG (DNA:RNA)
RNA: GGGAGACCGGAAUUCAGAUUGUCCGUCAAAGUUAAAUCCCGUCGUAGCCACCA
DNA 1: CAATCTGAATTCCGGTCTCCC
DNA 2: TGGTGGCTACGACGGGATT
B20: UACUUAC (DNA:RNA)
RNA: B1 RNA with G26A, U27C, G30A, A31C
DNA 1: CAATCTGAATTCCGGTCTCCC
DNA 2: TGGTGGCTACGACGGGATT
B21: UUGAAUC (DNA:RNA)
RNA: B19 RNA with G25U, C27G, A30U, G31C
DNA 1: CAATCTGAATTCCGGTCTCCC
DNA 2: TGGTGGCTACGACGGGATT
B22: CCUCCUA (DNA:RNA)
RNA: B1 RNA with U25C, G26C, U28C, U29C, G30U
DNA 1: CAATCTGAATTCCGGTCTCCC
DNA 2: TGGTGGCTACGACGGGATT
B23: UCGACGA (DNA:RNA)
RNA: B1 RNA with G26C, U27G, U28A, U29C
DNA 1: CAATCTGAATTCCGGTCTCCC
DNA 2: TGGTGGCTACGACGGGATT
B24: GGAGCCA (DNA:RNA)
RNA: B1 RNA with U25G, U27A, U28G, U29C, G30C
DNA 1: CAATCTGAATTCCGGTCTCCC
DNA 2: TGGTGGCTACGACGGGATT
B25: GUUGUAA (DNA:RNA)
RNA: B19 RNA with C27U, A28G, A29U, G31A
DNA 1: CAATCTGAATTCCGGTCTCCC
DNA 2: TGGTGGCTACGACGGGATT
B26: ACAUGCA (DNA:RNA)
RNA: B1 RNA with U25A, G26C, U27A, U29G, G30C
DNA 1: CAATCTGAATTCCGGTCTCCC
DNA 2: TGGTGGCTACGACGGGATT
B27: ACAGUGC (DNA:RNA)
RNA: B1 RNA with U25A, G26C, U27A, U28G, A31C
DNA 1: CAATCTGAATTCCGGTCTCCC
DNA 2: TGGTGGCTACGACGGGATT
B28: GUACCUU (DNA:RNA)
RNA: B19 RNA with C27A, A28C, A29C, A30U, G31U
DNA 1: CAATCTGAATTCCGGTCTCCC
DNA 2: TGGTGGCTACGACGGGATT
B29: CAUUCCG (DNA:RNA)
RNA: B1 RNA with U25C, G26A, U29C, G30C, A31G
DNA 1: CAATCTGAATTCCGGTCTCCC
DNA 2: TGGTGGCTACGACGGGATT
B30: ACUUCAU (DNA:RNA)
RNA: B1 RNA with U25A, G26C, U29C, G30A, A31U
DNA 1: CAATCTGAATTCCGGTCTCCC
DNA 2: TGGTGGCTACGACGGGATT
B31: CCAAUUG (DNA:RNA)
RNA: B19 RNA with G25C, U26C, C27A, A29U, A30U
DNA 1: CAATCTGAATTCCGGTCTCCC
DNA 2: TGGTGGCTACGACGGGATT

Target: T1, RBFOX1 RRM
Experiment: EMSA; HiTS-Eq, 1 nM pool, 10 min; buffer printed only for the single-RNA assays: 10 mM Tris pH 7.5, 150 mM NaCl, 3.4 mM EDTA, 0.001% NP-40, 30 C
Conditions: tags: His6 N-terminal (pET28a); label: 5' 32P
Outline: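 A pool of RNA with 7 randomized nucleotides, 5′-radiolabelled and with DNA-annealed flanks, was equilibrated at 1 nM for 10 min in 50 µL with purified RbFox RRM, wild type or mutant, across increasing protein concentrations. Free RNA was separated by 8% native PAGE, excised, reverse-transcribed, barcoded by PCR and sequenced. Relative association constants were obtained from read-count changes of each RNA species versus the control reaction and normalised to the cognate motif.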

Binder | binding signal
B1 | 0.0341 KA relative to UGCAUGU
B2 | 0.0182 KA relative to UGCAUGU
B3 | 0.0057 KA relative to UGCAUGU
B4 | 0.00603 KA relative to UGCAUGU
B5 | 0.00228 KA relative to UGCAUGU
B6 | 0.0105 KA relative to UGCAUGU
B7 | 0.00679 KA relative to UGCAUGU
B8 | 0.0135 KA relative to UGCAUGU
B9 | 0.0123 KA relative to UGCAUGU
B10 | 0.0124 KA relative to UGCAUGU
B11 | 0.00022 KA relative to UGCAUGU
B12 | 0.0238 KA relative to UGCAUGU
B13 | 0.0332 KA relative to UGCAUGU
B14 | 0.000308 KA relative to UGCAUGU
B15 | 0.00433 KA relative to UGCAUGU
B16 | 0.000575 KA relative to UGCAUGU

Binder | binding signal
B17 | 0.0072 KA relative to UGCAUGU
B18 | 0.0044 KA relative to UGCAUGU
B19 | 0.00861 KA relative to UGCAUGU
B20 | 0.00405 KA relative to UGCAUGU
B21 | 0.0179 KA relative to UGCAUGU
B22 | 0.00311 KA relative to UGCAUGU
B23 | 0.00715 KA relative to UGCAUGU
B24 | 0.00985 KA relative to UGCAUGU
B25 | 0.0121 KA relative to UGCAUGU
B26 | 0.00884 KA relative to UGCAUGU
B27 | 0.00827 KA relative to UGCAUGU
B28 | 0.00362 KA relative to UGCAUGU
B29 | 0.0056 KA relative to UGCAUGU
B30 | 0.000497 KA relative to UGCAUGU
B31 | 0.00326 KA relative to UGCAUGU
